The supplement of paper PMC7826260
The other results are listed elsewhere or left out. Cleavage of a single-stranded DNA pool by Rep nickase domains was read by sequencing (3 µM enzyme, 1 h, 37 °C); shown is the middle of each 90-letter strand. Numbers give uncut DNA relative to the enzyme-free pool, as log2; more negative means more cut, near 0 not cut, and no call is made. The scaling is to total reads, so uncut sequences can rise above 0 when many others are cut.

tested on: T1, Rep nickase domain of tomato golden mosaic virus; experiment: uncleaved DNA left, log2 of reads against the no-enzyme library (log2 ratio); higher = less cleavage (more negative = more Rep cleavage of the k-mer); sequences stand for … in CTCGTCCG…ACCGGAGA
T1 sequence (residues 1-124, tag not shown): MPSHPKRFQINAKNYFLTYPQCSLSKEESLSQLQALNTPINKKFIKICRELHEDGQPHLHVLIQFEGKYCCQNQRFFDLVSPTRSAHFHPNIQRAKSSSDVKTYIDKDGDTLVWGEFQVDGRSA
Procedure: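 A pool of 90-nt single-stranded DNAs with seven random bases just before the constant AC of the nick site (name = the seven bases) was cut by 3 µM recombinant His6-SUMO-tagged Rep nickase domain (300 nM DNA, 50 mM HEPES pH 8.0, 50 mM NaCl, 1 mM MnCl2, 1 h, 37 °C, three replicates). Uncut DNA was amplified and sequenced.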

Sequence | uncleaved DNA left (log2)
TCCCGGC | -0.0326
TGTTGTG | -0.0529
CTAGAAT | 0.0179
AAAGGTG | 0.0393
GCTTGTT | 0.0129
TACAGTA | -0.0441
GCCCAAG | 0.172
CATTAGA | -0.0574
GGGGGAA | 0.154
TACCTGG | 0.177
AATCAAA | 0.0922
GTTATCC | 0.0694
AATAACG | 0.128
GCGTTGG | 0.00565
TTTTTGT | -0.167
TAGCTGA | 0.18
AGATTTT | -0.123
CACTAAG | -0.0164
AGAAGGG | 0.0968
GCGATTG | 0.116

Sequence | uncleaved DNA left (log2)
GAACGTA | 0.0196
CCATGGC | -0.105
TATGTCA | -0.0253
CGAACAA | 0.0447
GTATACA | 0.157
GGACGCT | -0.178
ATCTTAA | 0.0596
AGTCTAG | 0.0405
GAGTCAG | -0.0272
GATCGTA | -0.0459
GCGAATC | 0.00696
ATCAGTG | 0.108
GCCTTAT | 0.274
GGGAACG | 0.0343
TTGGAGC | 0.0129
AAGAATC | 0.145
AGCACTT | -0.0536
CGCCCTA | -0.0398
TTTGCTG | -0.0532
TAGATAA | 0.0743
